B1: GPR68, Q15743 (parent)
chain: MGNITADNSSMSCTIDHTIHQTLAPVVYVTVLVVGFPANCLSLYFGYLQIKARNELGVYLCNLTVADLFYICSLPFWLQYVLQHDNWSHGDLSCQVCGILLYENIYISVGFLCCISVDRYLAVAHPFRFHQFRTLKAAVGVSVVIWAKELLTSIYFLMHEEVIEDENQHRVCFEHYPIQAWQRAINYYRFLVGFLFPICLLLASYQGILRAVRRSHGTQKSRKDQIQRLVLSTVVIFLACFLPYHVLLLVRSVWEASCDFAKGVFNAYHFSLLLTSFNCVADPVLYCFVSETTHRDLARLRGACLAFLTCSRTGRAREAYPLGAPEASGKSGAQGEEPELLTKLHPAFQTPNSPGSGGFPTGRLA

The variants in data set [1] derive from B1. The experiment in a line: cAMP reporter score (Enrich2 score, wild type = 0); higher = more signal; HEK293T, FACS bins.
Variants of B1 are the subject of data set [2]. Description: surface expression score (Enrich2 score, wild type = 0); higher = more signal; HEK293T, FACS bins.

Consider 33 variants from the GPR68 mutational scans of Howard et al. (2025).

The least precise scores are not listed. Not listed are two conditions whose scores span a narrow range. Names with del lack the residues named; names with ins carry added residues between the positions named. For part of these data: The data file names ogerin without a concentration.

Y187T: the cAMP reporter score was 0.917 in data set [1] (pH 5.5); -0.965 in data set [1] (pH 6); 0.33 in data set [1] (pH 6, modulator: ogerin); -0.679 in data set [1] (pH 6.5, modulator: ogerin). The surface expression score in data set [2] is -1.06.

As to Y187C, the cAMP reporter score in data set [1] (pH 5.5) was 0.716; in data set [1] (pH 6), -0.284; in data set [1] (pH 6, modulator: ogerin), -0.003; in data set [1] (pH 6.5, modulator: ogerin), -0.401. In addition, the surface expression score in data set [2] is -0.672.

Regarding Y187L, the cAMP reporter score in data set [1] (pH 5.5) is -0.17; in data set [1] (pH 6) it was 0.444; in data set [1] (pH 6, modulator: ogerin), 1.33; in data set [1] (pH 6.5, modulator: ogerin) it was 0.255. Also, in data set [2], the surface expression score stood at 0.967.

As for Y187M, the cAMP reporter score is 0.398 in data set [1] (pH 5.5); 0.081 in data set [1] (pH 6); -0.099 in data set [1] (pH 6, modulator: ogerin); 0.241 in data set [1] (pH 6.5, modulator: ogerin). The surface expression score in data set [2] worked out at 0.717.

As for Y187S, the cAMP reporter score in data set [1] (pH 5.5) is 0.183; in data set [1] (pH 6) it was -0.465; in data set [1] (pH 6, modulator: ogerin), -0.115; in data set [1] (pH 6.5, modulator: ogerin), -0.297. In addition, the surface expression score in data set [2] was -1.24.

Take Y187K: the cAMP reporter score is 1.64 in data set [1] (pH 5.5); -0.534 in data set [1] (pH 6); 1.39 in data set [1] (pH 6, modulator: ogerin); 1.2 in data set [1] (pH 6.5, modulator: ogerin). Further, the surface expression score in data set [2] was -0.334.

For the variant Y187G, the cAMP reporter score in data set [1] (pH 5.5) was 0.394; in data set [1] (pH 6), 0.364; in data set [1] (pH 6, modulator: ogerin) it was 0.952; in data set [1] (pH 6.5, modulator: ogerin) it was -0.013. The surface expression score in data set [2] was -0.391.

As for Y187V, the cAMP reporter score in data set [1] (pH 5.5) is 0.003; in data set [1] (pH 6), 0.672; in data set [1] (pH 6, modulator: ogerin), 0.677; in data set [1] (pH 6.5, modulator: ogerin) it was -0.27. The surface expression score in data set [2] was -0.976.

As for Y187A, the cAMP reporter score is -1.1 in data set [1] (pH 5.5); -1.01 in data set [1] (pH 6); -1.08 in data set [1] (pH 6, modulator: ogerin); -1.21 in data set [1] (pH 6.5, modulator: ogerin). Also, the surface expression score in data set [2] was -1.55.

For the variant V192_G193del, the cAMP reporter score in data set [1] (pH 5.5) is -1.5; in data set [1] (pH 6), -1.46; in data set [1] (pH 6, modulator: ogerin), -1.71; in data set [1] (pH 6.5, modulator: ogerin) it was -1.24. In addition, the surface expression score in data set [2] is -2.73.

With Q182_R183insGSG, the cAMP reporter score in data set [1] (pH 5.5) is -0.492; in data set [1] (pH 6), -0.86; in data set [1] (pH 6, modulator: ogerin), -0.278; in data set [1] (pH 6.5, modulator: ogerin) it was -1.11. Besides, the surface expression score in data set [2] was -1.09.

Take I185_N186insG: the cAMP reporter score in data set [1] (pH 5.5) is -0.422; in data set [1] (pH 6) it was -1.04; in data set [1] (pH 6, modulator: ogerin), -1.38; in data set [1] (pH 6.5, modulator: ogerin), -1.66. In data set [2], the surface expression score is -1.29.

As for Y187_Y188del, the cAMP reporter score in data set [1] (pH 5.5) was -0.406; in data set [1] (pH 6, modulator: ogerin), -2.33; in data set [1] (pH 6.5, modulator: ogerin) it was -0.933.

Regarding L191del, the cAMP reporter score amounted to 0.007 in data set [1] (pH 5.5) and 0.765 in data set [1] (pH 6, modulator: ogerin).

For Q182_R183insGS, the cAMP reporter score in data set [1] (pH 5.5) is 0.815; in data set [1] (pH 6), 0.171; in data set [1] (pH 6.5, modulator: ogerin), -2.09. The surface expression score in data set [2] was 0.212.

Regarding W181_Q182del, the cAMP reporter score in data set [1] (pH 5.5) is 1.58; in data set [1] (pH 6), 0.513; in data set [1] (pH 6, modulator: ogerin) it was 0.528; in data set [1] (pH 6.5, modulator: ogerin), -0.322. Besides, in data set [2], the surface expression score was 0.179.

On to F190A, for which the cAMP reporter score is 0.613 in data set [1] (pH 5.5); -0.143 in data set [1] (pH 6); 0.949 in data set [1] (pH 6, modulator: ogerin); 0.092 in data set [1] (pH 6.5, modulator: ogerin). The surface expression score in data set [2] is 0.205.

Turning to F190V, the cAMP reporter score stood at 0.791 in data set [1] (pH 5.5); 2.02 in data set [1] (pH 6); 1.38 in data set [1] (pH 6, modulator: ogerin); 3.07 in data set [1] (pH 6.5, modulator: ogerin). Besides, the surface expression score in data set [2] was -0.323.

Take F190T: the cAMP reporter score in data set [1] (pH 5.5) was -0.862; in data set [1] (pH 6.5, modulator: ogerin) it was -1.37. The surface expression score in data set [2] is -2.1.

F190L: the cAMP reporter score was -0.143 in data set [1] (pH 5.5); 0.309 in data set [1] (pH 6); -0.944 in data set [1] (pH 6, modulator: ogerin); -0.335 in data set [1] (pH 6.5, modulator: ogerin). For the same variant, the surface expression score in data set [2] is 0.739.

As for F190S, the cAMP reporter score in data set [1] (pH 5.5) was -1.1; in data set [1] (pH 6) it was 2.16; in data set [1] (pH 6, modulator: ogerin) it was -0.687; in data set [1] (pH 6.5, modulator: ogerin) it was -0.573. The surface expression score in data set [2] is -1.42.

On to F190W, for which the cAMP reporter score is -0.776 in data set [1] (pH 5.5); -0.882 in data set [1] (pH 6); -0.363 in data set [1] (pH 6, modulator: ogerin); -1.4 in data set [1] (pH 6.5, modulator: ogerin).

Regarding F190I, the cAMP reporter score in data set [1] (pH 5.5) is -0.246; in data set [1] (pH 6, modulator: ogerin) it was 0.262; in data set [1] (pH 6.5, modulator: ogerin), 0.029. In data set [2], the surface expression score was -0.299.

For the variant F190C, the cAMP reporter score in data set [1] (pH 5.5) was -0.407; in data set [1] (pH 6), -0.839; in data set [1] (pH 6, modulator: ogerin), -0.295; in data set [1] (pH 6.5, modulator: ogerin), -0.4. The surface expression score in data set [2] was -0.916.

Turning to F190Y, the cAMP reporter score in data set [1] (pH 5.5) is -1.79; in data set [1] (pH 6), -1.4; in data set [1] (pH 6, modulator: ogerin) it was -1.97; in data set [1] (pH 6.5, modulator: ogerin), -1.54. Further, the surface expression score in data set [2] is -2.38.

For the variant F190P, the cAMP reporter score is -1.43 in data set [1] (pH 5.5); -0.672 in data set [1] (pH 6); -1.84 in data set [1] (pH 6, modulator: ogerin); -0.678 in data set [1] (pH 6.5, modulator: ogerin). In addition, the surface expression score in data set [2] was -2.57.

As to F190R, the cAMP reporter score in data set [1] (pH 5.5) is -1.57; in data set [1] (pH 6), -0.527; in data set [1] (pH 6.5, modulator: ogerin), -1.76. For the same variant, in data set [2], the surface expression score is -1.44.

Turning to F190K, the cAMP reporter score in data set [1] (pH 5.5) was -1.74; in data set [1] (pH 6, modulator: ogerin), -0.996; in data set [1] (pH 6.5, modulator: ogerin) it was -1.37. In addition, the surface expression score in data set [2] is -1.96.

In the case of F190E, the cAMP reporter score in data set [1] (pH 5.5) is -0.6; in data set [1] (pH 6), -0.482; in data set [1] (pH 6, modulator: ogerin), -1.13; in data set [1] (pH 6.5, modulator: ogerin), -1.7. Also, in data set [2], the surface expression score was -1.43.

Take F190N: the cAMP reporter score in data set [1] (pH 5.5) is -1.03; in data set [1] (pH 6, modulator: ogerin) it was -1.64; in data set [1] (pH 6.5, modulator: ogerin) it was -0.149.

On to F190M, for which the cAMP reporter score is 0.446 in data set [1] (pH 5.5); 0.596 in data set [1] (pH 6); -0.146 in data set [1] (pH 6, modulator: ogerin); -0.693 in data set [1] (pH 6.5, modulator: ogerin). In addition, the surface expression score in data set [2] was -0.068.

As for F190H, the cAMP reporter score in data set [1] (pH 5.5) is -1.3; in data set [1] (pH 6) it was -0.757; in data set [1] (pH 6.5, modulator: ogerin), -0.26. The surface expression score in data set [2] was -3.05.

F190Q: the cAMP reporter score in data set [1] (pH 5.5) was -1.2; in data set [1] (pH 6), -0.454; in data set [1] (pH 6, modulator: ogerin), -0.907; in data set [1] (pH 6.5, modulator: ogerin) it was -0.806. In addition, the surface expression score in data set [2] was -1.79.
